Measurements reported in PMC9911399, “Two distinct binding modes provide the RNA-binding protein RbFox with extraordinary sequence specificity”.
Where a chain is given by its changes, count along the chain named. The list shows a part of the results.

T1: RBFOX1 RRM RbFoxmut (Fox-RRM*) (Homo sapiens, UniProt Q9NWB1 109-208, R118D;E147R;N151S;E152T)
T1 sequence: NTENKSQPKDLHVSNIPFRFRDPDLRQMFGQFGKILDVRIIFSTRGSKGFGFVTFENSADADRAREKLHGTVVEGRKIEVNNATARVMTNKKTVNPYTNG

B1: CAUGCCA (DNA:RNA)
RNA: GGGAGACCGGAAUUCAGAUUGUCCCAUGCCAUUAAAUCCCGUCGUAGCCACCA
DNA 1: CAATCTGAATTCCGGTCTCCC
DNA 2: TGGTGGCTACGACGGGATT
B2: CGUCAGA (DNA:RNA)
RNA: B1 RNA with A26G, G28C, C29A, C30G
DNA 1: CAATCTGAATTCCGGTCTCCC
DNA 2: TGGTGGCTACGACGGGATT
B3: AAUUGUU (DNA:RNA)
RNA: B1 RNA with C25A, G28U, C29G, C30U, A31U
DNA 1: CAATCTGAATTCCGGTCTCCC
DNA 2: TGGTGGCTACGACGGGATT
B4: AUAUGGA (DNA:RNA)
RNA: B1 RNA with C25A, A26U, U27A, G28U, C29G, C30G
DNA 1: CAATCTGAATTCCGGTCTCCC
DNA 2: TGGTGGCTACGACGGGATT
B5: GCACACC (DNA:RNA)
RNA: B1 RNA with C25G, A26C, U27A, G28C, C29A, A31C
DNA 1: CAATCTGAATTCCGGTCTCCC
DNA 2: TGGTGGCTACGACGGGATT
B6: AGAAACU (DNA:RNA)
RNA: B1 RNA with C25A, A26G, U27A, G28A, C29A, A31U
DNA 1: CAATCTGAATTCCGGTCTCCC
DNA 2: TGGTGGCTACGACGGGATT
B7: CGCCGCC (DNA:RNA)
RNA: B1 RNA with A26G, U27C, G28C, C29G, A31C
DNA 1: CAATCTGAATTCCGGTCTCCC
DNA 2: TGGTGGCTACGACGGGATT
B8: AAUAUCU (DNA:RNA)
RNA: B1 RNA with C25A, G28A, C29U, A31U
DNA 1: CAATCTGAATTCCGGTCTCCC
DNA 2: TGGTGGCTACGACGGGATT
B9: GCGUUCG (DNA:RNA)
RNA: B1 RNA with C25G, A26C, U27G, G28U, C29U, A31G
DNA 1: CAATCTGAATTCCGGTCTCCC
DNA 2: TGGTGGCTACGACGGGATT
B10: GUAGGAG (DNA:RNA)
RNA: B1 RNA with C25G, A26U, U27A, C29G, C30A, A31G
DNA 1: CAATCTGAATTCCGGTCTCCC
DNA 2: TGGTGGCTACGACGGGATT
B11: CUUACAG (DNA:RNA)
RNA: B1 RNA with A26U, G28A, C30A, A31G
DNA 1: CAATCTGAATTCCGGTCTCCC
DNA 2: TGGTGGCTACGACGGGATT
B12: GAGCCCC (DNA:RNA)
RNA: B1 RNA with C25G, U27G, G28C, A31C
DNA 1: CAATCTGAATTCCGGTCTCCC
DNA 2: TGGTGGCTACGACGGGATT
B13: AUUCGAC (DNA:RNA)
RNA: B1 RNA with C25A, A26U, G28C, C29G, C30A, A31C
DNA 1: CAATCTGAATTCCGGTCTCCC
DNA 2: TGGTGGCTACGACGGGATT
B14: CUUGAUC (DNA:RNA)
RNA: B1 RNA with A26U, C29A, C30U, A31C
DNA 1: CAATCTGAATTCCGGTCTCCC
DNA 2: TGGTGGCTACGACGGGATT
B15: AAGCCAC (DNA:RNA)
RNA: B1 RNA with C25A, U27G, G28C, C30A, A31C
DNA 1: CAATCTGAATTCCGGTCTCCC
DNA 2: TGGTGGCTACGACGGGATT
B16: CCUAUGG (DNA:RNA)
RNA: B1 RNA with A26C, G28A, C29U, C30G, A31G
DNA 1: CAATCTGAATTCCGGTCTCCC
DNA 2: TGGTGGCTACGACGGGATT
B17: GUGAACU (DNA:RNA)
RNA: B1 RNA with C25G, A26U, U27G, G28A, C29A, A31U
DNA 1: CAATCTGAATTCCGGTCTCCC
DNA 2: TGGTGGCTACGACGGGATT
B18: GAGGGAG (DNA:RNA)
RNA: B1 RNA with C25G, U27G, C29G, C30A, A31G
DNA 1: CAATCTGAATTCCGGTCTCCC
DNA 2: TGGTGGCTACGACGGGATT
B19: AAGUGUA (DNA:RNA)
RNA: B1 RNA with C25A, U27G, G28U, C29G, C30U
DNA 1: CAATCTGAATTCCGGTCTCCC
DNA 2: TGGTGGCTACGACGGGATT
B20: GAUUUUU (DNA:RNA)
RNA: B1 RNA with C25G, G28U, C29U, C30U, A31U
DNA 1: CAATCTGAATTCCGGTCTCCC
DNA 2: TGGTGGCTACGACGGGATT

molecular target: T1, RBFOX1 RRM RbFoxmut (Fox-RRM*); test: EMSA; HiTS-Eq, 1 nM pool, 10 min; buffer printed only for the single-RNA assays: 10 mM Tris pH 7.5, 150 mM NaCl, 3.4 mM EDTA, 0.001% NP-40, 30 C; settings: tags: His6 N-terminal (pET28a); label: 5' 32P
Procedure, shortened: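 Relative association constants, normalised to the cognate motif, were derived by comparing read counts of each RNA species with those of the control reaction. The RNA sequenced was the free fraction, separated by 8% native PAGE after a 10 min equilibration in 50 µL of 1 nM 5′-radiolabelled RNA (7 randomized nucleotides) with increasing concentrations of purified wild-type or mutant RbFox RRM.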

**Q.** How did the binding signal turn out when B1 was run?
**A.** 0.121 KA relative to UGCAUGU

**Q.** B2 was tested. Which binding signal did it give?
**A.** 0.0862 KA relative to UGCAUGU

**Q.** With B3 as the binder, how does the binding signal read?
**A.** 0.135 KA relative to UGCAUGU

**Q.** B4 was tested. Which binding signal did it give?
**A.** 0.0552 KA relative to UGCAUGU

**Q.** How did the binding signal turn out when B5 was run?
**A.** 0.0578 KA relative to UGCAUGU

**Q.** How did the binding signal turn out when B6 was run?
**A.** 0.0708 KA relative to UGCAUGU

**Q.** Which binding signal does the source give for B7 here?
**A.** 0.13 KA relative to UGCAUGU

**Q.** B8 was tested. Which binding signal did it give?
**A.** 0.0835 KA relative to UGCAUGU

**Q.** Which binding signal does the source give for B9 here?
**A.** 0.177 KA relative to UGCAUGU

**Q.** How did the binding signal turn out when B10 was run?
**A.** 0.12 KA relative to UGCAUGU

**Q.** How did the binding signal turn out when B11 was run?
**A.** 0.07 KA relative to UGCAUGU

**Q.** B12 was tested. Which binding signal did it give?
**A.** 0.0485 KA relative to UGCAUGU

**Q.** B13 was tested. Which binding signal did it give?
**A.** 0.0748 KA relative to UGCAUGU

**Q.** How did the binding signal turn out when B14 was run?
**A.** 0.0591 KA relative to UGCAUGU

**Q.** For B15, which binding signal is on record?
**A.** 0.0884 KA relative to UGCAUGU

**Q.** B16 was tested. Which binding signal did it give?
**A.** 0.0949 KA relative to UGCAUGU

**Q.** With B17 as the binder, how does the binding signal read?
**A.** 0.0914 KA relative to UGCAUGU

**Q.** With B18 as the binder, how does the binding signal read?
**A.** 0.1 KA relative to UGCAUGU

**Q.** With B19 as the binder, how does the binding signal read?
**A.** 0.215 KA relative to UGCAUGU

**Q.** For B20, which binding signal is on record?
**A.** 0.0888 KA relative to UGCAUGU
